# Test results: the supplement of paper PMC10986608
# The list shows a part of the results. Many values rest on one well or one pass, so single values are uncertain.
# System: Candida albicans DPL-15
# Assay: growth (OD600) after compound treatment (apparently relative to screen median) (relative growth (fraction; screen median 1.02)); DPL-15 is a caspofungin-resistant clinical isolate; higher = more fungal growth (less antifungal activity)
# Conditions: 25 µM; RPMI 1640; 48 h; 30 °C
row,SMILES,growth
1,COc1ccc(-c2c(O)c(=O)c3c(OC)cccc3n2C)cc1,0.414
2,CCc1cc2c(nc1CC)CCCN2S(=O)(=O)c1ccccc1C,0.99
3,COC(=O)N[C@@H](c1ccco1)C(C(C)=O)C(=O)OC (some centres not stated),0.978
4,COC(=O)[C@]1([C@H]2CCC(=O)O2)CC(=O)c2c(OC)cccc2O1,1.08
5,CC(=O)OC[C@]12CC[C@@H](C(C)=O)[C@@H]1[C@H]1CC[C@@H]3[C@@]4(C)CC[C@@H](O)[C@@](C)(O)[C@@H]4CC[C@@]3(C)[C@]1(C)CC2,0.887
6,CC(C)CC1=NCCNC2=C1C(c1ccc(F)cc1)NC2=O (configuration not stated),1.1
7,COC(=O)C1=C(C)N(Cc2ccccc2C(F)(F)F)C(NCc2ccccc2)=NC1c1cccc(Cl)c1 (configuration not stated),0.819
8,CC(C)(C)C1=C[C@H]2[C@H]3C(=O)C(c4ccc(O)cc4)=C[C@@]3(c3ccc(O)cc3)[C@@H]1C(=O)[C@]2(C)O,1.05
9,COc1ccc(-c2oc(-c3ccc4c(c3)OCO4)c(C)c2C)cc1OC,1.1
10,COC(=O)C1=C(C)NC(=O)NC1c1cccc(C)c1 (configuration not stated),1.07
11,CCCN1C(NCC2CCCCC2)=NC(c2ccc(F)cc2)C(C(=O)OC)=C1C (configuration not stated),1.17
12,CCN1C(=O)N[C@@H](c2cccc(C(F)(F)F)c2)[C@@H](C(=O)OC)[C@H]1C,0.95
13,CC(C)Cc1nn(-c2ccc(OC(F)(F)F)cc2)c2c1C(c1ccc3c(c1)OCO3)NC2=O (configuration not stated),1.1
14,O=C(/C=C/c1ccc2c(c1)OCO2)c1ccccc1,0.934
15,COCOc1ccc(OC)cc1C(=O)/C=C/c1ccc(OC)c(Br)c1,0.902
16,O=C(/C=C(O)/C=C/c1ccc(Br)cc1)/C=C/c1ccc(Br)cc1,0.232
17,COC(=O)C1=C(C)N(Cc2ccc(F)cc2)C(=S)NC1c1ccccc1 (configuration not stated),0.974
18,COc1ccc([C@@]23Oc4cc(OC)cc(OC)c4[C@]2(O)[C@H](O)[C@H](C(=O)c2ccco2)[C@H]3c2ccc(O)cc2)cc1,0.842
19,C=CCN1C(=O)[C@@]2(CC(C)=C[C@@H](COc3ccccc3)O2)c2ccccc21,1.03
20,COc1cc(O)cc2c1[C@]1(O)[C@H](O)C[C@@H](c3ccccc3)[C@]1(c1ccc(Br)cc1)O2,1.1
21,CCOC(=O)C1=C(C)NC(=O)NC1c1ccc(C(F)(F)F)cc1 (configuration not stated),1.05
22,O=c1c(O)c(-c2ccc(Br)cc2)oc2cc(F)cc(OCC(F)(F)F)c12,1.06
